Reference: the supplement of paper PMC8728848
This is one part of the list.

Experiments:
Assay in all cases: glycan array binding signal (z-score within array); higher = stronger binding
Settings in all cases: glycan notation: IUPAC condensed, linker removed
[1] = molecular target: Fuc(a1-2)Gal(b1-4)GlcNAc(b1-2)Man(a1-3)[Fuc(a1-2)Gal(b1-4)GlcNAc(b1-2)Man(a1-6)]Man(b1-4)GlcNAc(b1-4)[Fuc(a1-6)]GlcNAc
In short: (§1)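 The Consortium for Functional Glycomics database supplied 3228 glycan arrays, of which those lacking an available protein sequence were dropped. The binding signal, a within-array Z-score, was averaged across arrays of the same protein sequence and across linkers. Negative scores can be read as non-binding.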

[2] = molecular target: Fuc(a1-2)Gal(b1-4)GlcNAc(b1-2)[Fuc(a1-2)Gal(b1-4)GlcNAc(b1-4)]Man(a1-3)[Fuc(a1-2)Gal(b1-4)GlcNAc(b1-2)Man(a1-6)]Man(b1-4)GlcNAc(b1-4)GlcNAc
In short: as §1

[3] = molecular target: Fuc(a1-2)Gal(b1-4)GlcNAc(b1-3)Gal(b1-4)GlcNAc
In short: as §1

[4] = molecular target: Fuc(a1-2)Gal(b1-4)GlcNAc(b1-3)Gal(b1-4)GlcNAc(b1-2)Man(a1-3)[Fuc(a1-2)Gal(b1-4)GlcNAc(b1-3)Gal(b1-4)GlcNAc(b1-2)Man(a1-6)]Man(b1-4)GlcNAc(b1-4)GlcNAc
In short: as §1

[5] = molecular target: Fuc(a1-2)Gal(b1-4)GlcNAc(b1-3)Gal(b1-4)GlcNAc(b1-3)Gal(b1-4)GlcNAc
In short: as §1

[6] = molecular target: Fuc(a1-2)Gal(b1-4)GlcNAc(b1-3)GalNAc
In short: as §1

[7] = molecular target: Fuc(a1-2)Gal(b1-4)GlcNAc(b1-3)[Fuc(a1-2)Gal(b1-4)GlcNAc(b1-6)]GalNAc
In short: as §1

[8] = molecular target: Fuc(a1-2)Gal(b1-4)GlcNAc(b1-3)[Fuc(a1-3)[Gal(b1-4)]GlcNAc(b1-6)]Gal(b1-4)Glc
In short: as §1

[9] = molecular target: Fuc(a1-2)Gal(b1-4)GlcNAc(b1-6)GalNAc
In short: as §1

[10] = molecular target: Fuc(a1-2)Gal(b1-4)GlcNAc6S
In short: as §1

[11] = molecular target: Fuc(a1-2)Gal(b1-4)[Fuc(a1-3)]GlcNAc
In short: as §1

[12] = molecular target: Fuc(a1-2)Gal(b1-4)[Fuc(a1-3)]GlcNAc(b1-2)Man(a1-3)[Fuc(a1-2)Gal(b1-4)[Fuc(a1-3)]GlcNAc(b1-2)Man(a1-6)]Man(b1-4)GlcNAc(b1-4)GlcNAc
In short: as §1

[13] = molecular target: Fuc(a1-2)Gal(b1-4)[Fuc(a1-3)]GlcNAc(b1-2)Man(a1-3)[Fuc(a1-2)Gal(b1-4)[Fuc(a1-3)]GlcNAc(b1-2)Man(a1-6)]Man(b1-4)GlcNAc(b1-4)[Fuc(a1-6)]GlcNAc
In short: as §1

[14] = molecular target: Fuc(a1-2)Gal(b1-4)[Fuc(a1-3)]GlcNAc(b1-2)Man(a1-6)[Fuc(a1-2)Gal(b1-4)[Fuc(a1-3)]GlcNAc(b1-2)Man(a1-3)]Man(b1-4)GlcNAc(b1-4)[Fuc(a1-6)]GlcNAc
In short: as §1

[15] = molecular target: Fuc(a1-2)Gal(b1-4)[Fuc(a1-3)]GlcNAc(b1-2)[Fuc(a1-2)Gal(b1-4)[Fuc(a1-3)]GlcNAc(b1-4)]Man(a1-3)[Fuc(a1-2)Gal(b1-4)[Fuc(a1-3)]GlcNAc(b1-2)Man(a1-6)]Man(b1-4)GlcNAc(b1-4)GlcNAc
In short: as §1

[16] = molecular target: Fuc(a1-2)Gal(b1-4)[Fuc(a1-3)]GlcNAc(b1-3)Gal(b1-4)[Fuc(a1-3)]GlcNAc
In short: as §1

[17] = molecular target: Fuc(a1-2)Gal(b1-4)[Fuc(a1-3)]GlcNAc(b1-3)Gal(b1-4)[Fuc(a1-3)]GlcNAc(b1-3)Gal(b1-4)[Fuc(a1-3)]GlcNAc
In short: as §1

[18] = molecular target: Fuc(a1-2)Gal(b1-4)[Fuc(a1-3)]GlcNAc(b1-3)GalNAc
In short: as §1

[19] = molecular target: Fuc(a1-2)Gal(b1-4)[Fuc(a1-3)]GlcNAc(b1-3)[Neu5Ac(a2-6)Gal(b1-4)GlcNAc(b1-6)]Gal(b1-4)Glc
In short: as §1

[20] = molecular target: Fuc(a1-2)Gal3S(b1-4)GlcNAc
In short: as §1

[21] = molecular target: Fuc(a1-2)Gal6S(b1-3)GlcNAc
In short: as §1

[22] = molecular target: Fuc(a1-2)Gal6S(b1-3)GlcNAc6S
In short: as §1

Fuc(a1-2)Gal6S(b1-4)Glc = molecular target: Fuc(a1-2)Gal6S(b1-4)Glc
In short: as §1

[23] = molecular target: Fuc(a1-2)Gal6S(b1-4)Glc6S
In short: as §1

[24] = molecular target: Fuc(a1-2)Gal6S(b1-4)GlcNAc
In short: as §1

Fuc(a1-2)[Gal(a1-3)]Gal = molecular target: Fuc(a1-2)[Gal(a1-3)]Gal
In short: as §1

[25] = molecular target: Fuc(a1-2)[Gal(a1-3)]Gal(b1-3)GalNAc
In short: as §1

[26] = molecular target: Fuc(a1-2)[Gal(a1-3)]Gal(b1-3)GalNAc(b1-3)Gal(a1-4)Gal(b1-4)Glc
In short: as §1

[27] = molecular target: Fuc(a1-2)[Gal(a1-3)]Gal(b1-3)GlcNAc
In short: as §1

[28] = molecular target: Fuc(a1-2)[Gal(a1-3)]Gal(b1-3)GlcNAc(b1-2)Man(a1-3)[Fuc(a1-2)[Gal(a1-3)]Gal(b1-3)GlcNAc(b1-2)Man(a1-6)]Man(b1-4)GlcNAc(b1-4)GlcNAc
In short: as §1

B1: OrysaEULS2 (Oryza sativa) (protein)
chain: MVYCRANPNYAMTARNGAVVLAPANPKDEYQHWIKDMRWSTSIKDEEGYPAFALVNKATGQAIKHSLGQSHPVRLVPYNPEVMDESVLWTESRDVGNGFRCIRMVNNIYLNFDAFHGDKYHGGVRDGTDIVLWKWCEGDNQRWKIQPYYILEQKLISEEDLNSAVDHHHHHH
glycan array binding signal (z-score) [1]: -0.104 | glycan array binding signal (z-score) [2]: -0.145 | glycan array binding signal (z-score) [3]: -0.19 | glycan array binding signal (z-score) [4]: 0.507 | glycan array binding signal (z-score) [5]: -0.186 | glycan array binding signal (z-score) [6]: -0.182 | glycan array binding signal (z-score) [7]: -0.198 | glycan array binding signal (z-score) [8]: -0.276 | glycan array binding signal (z-score) [9]: -0.163 | glycan array binding signal (z-score) [10]: -0.181 | glycan array binding signal (z-score) [11]: -0.191 | glycan array binding signal (z-score) [12]: -0.159 | glycan array binding signal (z-score) [13]: -0.119 | glycan array binding signal (z-score) [14]: -0.082 | glycan array binding signal (z-score) [15]: -0.142 | glycan array binding signal (z-score) [16]: -0.2 | glycan array binding signal (z-score) [17]: -0.194 | glycan array binding signal (z-score) [18]: -0.025 | glycan array binding signal (z-score) [19]: -0.211 | glycan array binding signal (z-score) [20]: -0.255 | glycan array binding signal (z-score) [21]: -0.206 | glycan array binding signal (z-score) [22]: -0.141 | glycan array binding signal (z-score) (Fuc(a1-2)Gal6S(b1-4)Glc): -0.187 | glycan array binding signal (z-score) [23]: -0.166 | glycan array binding signal (z-score) [24]: -0.173 | glycan array binding signal (z-score) (Fuc(a1-2)[Gal(a1-3)]Gal): -0.205 | glycan array binding signal (z-score) [25]: -0.185 | glycan array binding signal (z-score) [26]: -0.248 | glycan array binding signal (z-score) [27]: -0.108 | glycan array binding signal (z-score) [28]: -0.081
